Assay results reported in paper PMC6919601, “Identification of Plasmodium dipeptidyl aminopeptidase allosteric inhibitors by high throughput screening” (PLoS ONE, 2019).
Among all 110,000 compounds or so, about 230 (0.21%) showed an effect of 50% or more. This is one part of the list.

Target: DPAP1 (Plasmodium falciparum, UniProt Q8IIJ9)
Test: primary screen, percent inhibition; read by cleavage of a fluorogenic dipeptide substrate; higher = more effect of the substance
Set-up: species or system P. falciparum D10 trophozoite lysates; single well
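Further: 30 min substrate incubation versus DMSO and 10 µM JCP410 controls.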

DPAP1, sequence (Q8IIJ9 whole entry, looked up): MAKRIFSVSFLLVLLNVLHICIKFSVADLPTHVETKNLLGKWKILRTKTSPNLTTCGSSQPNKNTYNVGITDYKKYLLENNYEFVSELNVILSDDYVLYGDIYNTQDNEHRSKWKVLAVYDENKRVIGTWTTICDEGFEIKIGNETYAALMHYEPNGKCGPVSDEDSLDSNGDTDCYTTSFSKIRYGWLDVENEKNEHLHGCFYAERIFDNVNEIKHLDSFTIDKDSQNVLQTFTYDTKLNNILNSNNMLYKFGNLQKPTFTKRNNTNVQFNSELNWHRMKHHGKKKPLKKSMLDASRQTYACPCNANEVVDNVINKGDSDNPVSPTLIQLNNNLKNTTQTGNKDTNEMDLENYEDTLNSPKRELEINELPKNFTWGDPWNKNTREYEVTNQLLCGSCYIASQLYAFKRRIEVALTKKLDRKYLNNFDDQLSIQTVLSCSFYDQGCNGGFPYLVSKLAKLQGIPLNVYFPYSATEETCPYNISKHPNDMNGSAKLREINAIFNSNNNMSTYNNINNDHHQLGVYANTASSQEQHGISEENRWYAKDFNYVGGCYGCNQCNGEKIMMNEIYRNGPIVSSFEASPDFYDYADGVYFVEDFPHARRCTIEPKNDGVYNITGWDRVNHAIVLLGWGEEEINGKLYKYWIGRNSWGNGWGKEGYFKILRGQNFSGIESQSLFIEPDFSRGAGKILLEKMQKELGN

Row | SMILES | % Inhibition @ 10 uM [%]
1 | COc1cc(CNC23CC4CC(CC(C4)C2)C3)ccc1OCC(=O)NC(C)(C)C | -1.43
2 | O=C(NCCOC12CC3CC(CC(C3)C1)C2)c1cc2c(s1)-c1ccccc1S(=O)(=O)C2 | -4.24
3 | CCC(=O)Nc1sc2c(c1C#N)CCCCC2 | -4.43
4 | Oc1cc(-c2ccccc2Cl)c2c(n1)CCC2 | -0.256
5 | Cc1nn(C(=O)COc2ccc(Cl)cc2Cl)c(N)c1-c1ccccc1 | 4.32
6 | COC(=O)CCCc1c2ccccc2nc2ccccc12 | 0.989
7 | CCc1ccc(C2C3=C(O)CCCC3=NC(C)=C2C(=O)OC(C)C)cc1 (centres unmarked) | 4.1
8 | C=CCNC(=O)CN(c1ccc(C23C[C@H]4C[C@@H](C2)C[C@@H](C3)C4)cc1)S(C)(=O)=O | 1.19
9 | Cc1ccccc1/N=C1/SCC(=O)N1Cc1ccccc1 | -7.15
10 | CC(=O)Nc1c(C)ccc(C(=O)O)c1[N+](=O)[O-] | -3.8
11 | O=C(CN1Cc2ccccc2C1=O)N1CCN(C(=O)c2ccco2)CC1 | -4.38
12 | COc1cc2nc(S)nc(NCCc3c[nH]c4ccccc34)c2cc1OC | 4.01
13 | O=C1c2ccccc2NC(c2ccccc2F)N1c1ccccc1 (centres unmarked) | 4.98
14 | CC(C)c1nnc(NC(=O)c2nc(SCc3ccccc3F)ncc2Cl)s1 | -0.946
15 | CCOc1ccccc1NC(=O)C1CC1(c1ccccc1)c1ccccc1 (centres unmarked) | -5.36
16 | CC1CC(C)CN(C(=O)Cn2c3ccccc3c3cnnc(O)c32)C1 (centres unmarked) | -0.281
17 | N#Cc1ccccc1OCC(=O)O | 3.29
18 | O=C(O)c1ccccc1OCC(O)Cn1cnc2ccccc21 (centres unmarked) | -1.84
19 | CCCCc1c(O)nc2c(C)cccc2c1C | -4.58
20 | Cc1ccc(C(=O)Nc2cc(C(F)(F)F)ccc2F)s1 | 4.77
21 | CC1(C)C(C=C(Cl)Cl)C1C(=O)NCc1ccc2c(c1)OCO2 (centres unmarked) | 0.983
22 | Cc1nnc2ccc(N3CCN(C(=O)c4ccccc4)CC3)nn12 | -3.08

Row | SMILES | % Inhibition @ 10 uM [%]
23 | COc1ccc(S(=O)(=O)N2CCN(Cc3ccc4c(c3)OCO4)CC2)c2ccccc12 | -1.84
24 | CCOc1cc(C(=O)Nc2nn3c(-c4ccco4)nnc3s2)cc(OCC)c1OCC | 1.39
25 | COc1cccc2c1Oc1ncccc1NC2 | 1.63
26 | COc1ccc(C(=O)c2cnc3cc4c(cc3c2S(=O)(=O)c2ccc(F)cc2)OCO4)cc1 | -9.67
27 | COc1ccc(NC(=O)CCC(=O)c2ccc(C)c(C)c2)cc1 | -5.26
28 | NC(=O)c1cnn2c(C(F)(F)F)cc(-c3cccs3)nc12 | -0.711
29 | CCOc1ccc(C2C=C(c3ccc(C(C)C)cc3)Nc3ncnn32)cc1 (centres unmarked) | -1.48
30 | COc1ccc(-c2cc(-c3ccc(C)cc3)nc(OC(C)C)n2)cc1 | 0.219
31 | COc1ccc(-c2ccc(CCC(=O)O)n2-c2ccc(C(N)=O)cc2)cc1 | 2.21
32 | CN(C)CC1CSCCC1(O)c1ccccc1Cl (centres unmarked) | -6.37
33 | COc1cc(C2SC(NC(C)=O)=NN2C(C)=O)cc(OC)c1OC (centres unmarked) | -2.24
34 | CCCCN(CCNC(=O)NCc1noc2ccccc12)Cc1ccco1 | -1.11
35 | O=C(O)CCC(=O)Nc1nc(-c2ccc(Cl)c(Cl)c2)cs1 | -3.45
36 | CC(=O)N/C(=C\c1c[nH]c2ccccc12)C(=O)O | 4.93
37 | Cc1sc2ncn(CC(=O)NCC(=O)N3CCC4(CC3)OCCO4)c(=O)c2c1C | -7.66
38 | CC1(C)NC(=O)N(Cc2ccccc2)C1=O | -5.14
39 | O=C1NC(=O)c2cc(N3C(=O)c4ccc(Oc5ccc(Br)cc5)cc4C3=O)ccc21 | 0.755
40 | Cn1c2c(c(=O)n(C)c1=O)C(NC(=O)C1CCCCC1)(C(F)(F)F)C(=O)N2 (centres unmarked) | -0.99
41 | O=c1cccc2n1C[C@H]1C[C@@H]2CN(Cc2cccc(O)c2)C1 | 1.54
42 | O=C(Nc1ccc2ccccc2c1)c1cnccn1 | -2.91
43 | O=C(Nc1ccccc1C(=O)NCc1ccccc1)c1ccccc1Cl | 2.55
44 | Cc1c(CNCc2ccc3c(c2)OCO3)c(C(=O)O)c(C)n1Cc1ccc(F)cc1 | -3.67

Row | SMILES | % Inhibition @ 10 uM [%]
45 | CCC(C)c1ccc(NC(=O)c2cnn(C)c2)cc1 (centres unmarked) | 4.05
46 | CC(C)(C)c1ccc(C(=O)Nc2cccc(O)c2)cc1 | 1.39
47 | C=CCN1C(=O)/C(=C/c2cc3ccccc3[nH]2)C(=O)NC1=S | 0.962
48 | O=C1c2cccnc2C(=O)N1CCc1ccc(S(=O)(=O)NC2CCCc3ccccc32)cc1 (centres unmarked) | -4.27
49 | N#CC1=C2SCN(Cc3ccccc3)CN2C(=O)CC1c1cccs1 (centres unmarked) | 40.5
50 | CCOc1ccc2nc(NC(=O)CN(C)S(=O)(=O)c3c[nH]cn3)sc2c1 | 1.63
51 | CCOC(=O)c1cnc2ccc(OC)cc2c1Cl | -0.357
52 | Cc1cccc(OCC(=O)Nc2cccnc2Cl)c1 | -1.52
53 | N#Cc1c(NCc2ccccc2)ccnc1S | 16.3
54 | O=C1OC(c2ccccc2F)=N/C1=C\c1ccc2c(c1)OCO2 | -7.96
55 | Cc1ccc(Cl)cc1N(CC(=O)NC(C)c1ccccc1)S(C)(=O)=O (centres unmarked) | -0.796
56 | Cc1oc(-c2ccc3c(c2)OCCO3)cc1C(=O)O | -0.403
57 | OCCN(Cc1ccccc1)Cc1ccc(F)c(Br)c1 | -7.17
58 | COc1ccc(C2=N/C(=C\c3ccccc3C(F)(F)F)C(=O)O2)c(Cl)c1 | -0.597
59 | Cc1ccc(S(=O)(=O)N2CCC(c3c(C)n(CC(=O)N4CCCC4)c4ccccc34)CC2)c(C)c1 | 2.34
60 | C=CCNC(=O)/C(C#N)=C/c1c(Oc2ccc(CC)cc2)nc2ccccn2c1=O | -4
61 | c1csc(-c2nn3c(-c4ccncc4)nnc3s2)c1 | -4.02
62 | N#CC1=C(N)OC2=C(C(=O)CC(c3ccccc3)C2)C1c1cc(Br)cs1 (centres unmarked) | 1.96
63 | CCOC(=O)c1cnc(Nc2nc3ccccc3o2)nc1CSc1ccc(Cl)cc1 | 4.94
64 | CCc1c(C)sc(NC(=O)c2c(-c3ccccc3Cl)noc2C)c1C(N)=O | -7.23
65 | CCCCN(C)Cc1c(O)ccc2ccccc12 | 4.88
